Data on 2 molecules can be found in patent US20240301031A1 (JIANGSU HENGRUI PHARMACEUTICALS, published 2024).

For assay [1], the target named is T1, human BAFF (10056-HNCH, Sino biological) (human, UniProt Q9Y275 fragment).
T1 construct: Bought protein
Description: competition ELISA: biotin-labeled BAFF to coated BCMA. How it is done: (§1) A receptor protein was diluted to 2 μg/mL with PBS at pH 7.4 (BasalMedia, B320) and added to a 96-well microplate (Corning, 3590) at 100 μL/well. The plate was incubated at 4° C. overnight. After the liquid was discarded, 200 μL of 1% Casein blocking solution (Thermo, 37528) was added to each well for blocking, and the plate was incubated at 37° C. for 2 h. After the blocking was completed, the blocking solution was discarded, and the plate was washed 3 times with a PBST buffer (PBS at pH 7.4 containing 0.1% tween-20) for later use. A biotin-labeled ligand protein at a fixed concentration was mixed with the antibody or fusion protein diluted in gradient, pre-incubated at 37° C. for 30 min, and added to a blocked microplate. The plate was incubated at 37° C. for 1.5 h. After the incubation was completed, the plate was washed 3 times with PBST. 100 μL of streptavidin-HRP (Invitrogen, 434323, diluted at a ratio of 1:4000) was added to each well, and the plate was incubated at 37° C. for 1 h. The supernatant was removed, and the plate was washed 3 times with PBST. […] The plate was read for absorbance values at 450 nm on a microplate reader, the curves for the inhibition of the binding of the ligands to the receptors were fitted with software, and the IC₅₀ values were calculated. […]
A general note: An ELISA detects its analyte on a solid surface through an enzyme-linked reagent.

The target in assay [2] is T2, chimeric IL-12 (human p40-mouse p35) (human; mouse, UniProt P29460 23-328; P43431 23-215).
T2 sequence (looked up) 1: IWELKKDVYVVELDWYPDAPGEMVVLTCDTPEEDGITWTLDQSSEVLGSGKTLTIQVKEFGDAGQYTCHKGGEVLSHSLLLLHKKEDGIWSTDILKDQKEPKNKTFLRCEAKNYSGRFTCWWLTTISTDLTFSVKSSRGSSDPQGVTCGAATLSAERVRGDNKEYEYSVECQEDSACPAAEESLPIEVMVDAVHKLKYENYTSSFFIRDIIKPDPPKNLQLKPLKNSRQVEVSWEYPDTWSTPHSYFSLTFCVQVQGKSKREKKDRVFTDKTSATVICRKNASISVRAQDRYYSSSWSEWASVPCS
T2 sequence (looked up) 2: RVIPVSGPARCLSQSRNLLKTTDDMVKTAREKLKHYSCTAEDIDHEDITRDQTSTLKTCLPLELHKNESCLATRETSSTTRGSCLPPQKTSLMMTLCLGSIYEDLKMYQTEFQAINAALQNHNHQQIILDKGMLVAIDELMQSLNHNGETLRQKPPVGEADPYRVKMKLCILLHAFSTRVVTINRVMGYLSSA
The experiment in a line: cell-based or functional assay.

In assay [3] the target is T3, mouse APRIL (7907-AP/CF, R&D Systems) (mouse, UniProt Q9D777 96-241, limits assumed).
T3 construct: Bought protein
T3 sequence (looked up): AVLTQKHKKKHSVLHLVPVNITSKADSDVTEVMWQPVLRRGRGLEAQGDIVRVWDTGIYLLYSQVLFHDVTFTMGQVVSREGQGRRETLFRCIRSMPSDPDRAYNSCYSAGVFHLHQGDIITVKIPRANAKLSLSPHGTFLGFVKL
Description: SPR (Biacore), sample captured on Protein A, antigen flowed, 1:1 fit. Here is the method: (§2) A certain amount of test sample was subjected to affinity capture by a biosensor chip Protein A (GE, 29127556), then antigens at a series of concentration gradients were allowed to flow on the surface of the chip. The reaction signals were detected in real time by using Biacore (GE, 8K) to obtain association and dissociation curves. After the dissociation was completed for each cycle, the biochip was washed and regenerated with a 10 mM glycine-hydrochloric acid solution at pH 1.5 (GE, BR-1003-54). The experimental data were fitted using BIAevaluation version 4.1, GE software with a 1:1 model to obtain affinity values. The related antigen proteins used in this assay are as follows: human IL-23 (CT048-H08H, Sino biological), human IL-12 (CT050-H08H, Sino biological), human BAFF (10056-HNCH, Sino biological), human APRIL (5860-AP-010/CF, R&D Systems), cynomolgus monkey p40 (10215-CL, R&D Systems), cynomolgus monkey BAFF (BAF-CM412B, Kactus), cynomolgus monkey APRIL (APR-CM410B, Kactus), mouse BAFF (BAF-M521y, Acro Biosystems), and mouse APRIL (7907-AP/CF, R&D Systems).

Assay [4] has as its target T4, cynomolgus monkey BAFF (BAF-CM412B, Kactus) (cynomolgus monkey, UniProt A0A2K5V2X4 134-285).
T4 construct: Bought protein
The assay is described as above. Here is the method:
as §2

Assay [5] has as its target T5, cynomolgus monkey APRIL (APR-CM410B, Kactus) (cynomolgus monkey).
T5 chain: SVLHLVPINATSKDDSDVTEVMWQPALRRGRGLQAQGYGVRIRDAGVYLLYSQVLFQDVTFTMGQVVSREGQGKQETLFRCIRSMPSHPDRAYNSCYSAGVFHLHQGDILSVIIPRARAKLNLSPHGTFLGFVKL
The description is as above. Here is the method: as §2

Assay [6] concerns the target T1, human BAFF (10056-HNCH, Sino biological). The description is as above. Here is the method:
as §2

Assay [7] has as its target T6, IL-12/23 p40 (Sino biological, 10052-H08H) (UniProt P29460 23-328).
T6 construct: Bought protein
T6 sequence (looked up): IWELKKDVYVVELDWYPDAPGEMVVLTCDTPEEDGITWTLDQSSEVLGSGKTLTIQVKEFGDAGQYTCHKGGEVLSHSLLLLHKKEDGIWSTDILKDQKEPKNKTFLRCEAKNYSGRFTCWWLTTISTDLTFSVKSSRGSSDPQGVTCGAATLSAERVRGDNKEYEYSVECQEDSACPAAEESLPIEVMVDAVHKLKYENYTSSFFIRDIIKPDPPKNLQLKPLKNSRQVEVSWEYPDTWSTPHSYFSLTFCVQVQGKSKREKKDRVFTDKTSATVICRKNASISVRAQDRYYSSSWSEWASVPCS
The experiment in a line: competition ELISA: biotin-labeled p40 to coated IL-12Rβ1. How it is done:
as §1

T1 sequence (Q9Y275 134-285 limits assumed): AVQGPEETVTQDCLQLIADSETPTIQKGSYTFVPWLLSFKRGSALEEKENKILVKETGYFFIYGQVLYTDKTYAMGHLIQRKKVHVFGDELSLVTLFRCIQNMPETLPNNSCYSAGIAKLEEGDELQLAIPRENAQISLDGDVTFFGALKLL

B1: TACI-Mab1 (other)
heavy: EVQLVQSGAEVKKPGESLKISCKGSGYSFTTYWLGWVRQMPGKGLDWIGIMSPVDSDIRYSPSFQGQVTMSVDKSITTAYLQWNSLKASDTAMYYCARRRPGQGYFDFWGQGTLVTVSS[omitted - human IgG1 constant region]GGSSTSCREEQGEFYDHLLRDCISCASICGQHPKQCAAFCENK
light: [omitted - about 200 residues]
notes: also called TACI antibody fusion protein
In the case of B1, the IC50 (commonly the concentration needed to halve the response being measured) in assay [1] was 143 pM; in assay [7] it was 2060 pM. In assay [2], the “IC50 (nM) for the inhibition of IL-12-induced IFNγ secretion” value came to 3.07 nM. Also, the Kd (usually the concentration at which binding is half-saturated) in assay [3] was determined as 7.7 pM; in assay [4], 258 pM; in assay [5] it was 32.3 pM; in assay [6], 96.6 pM. Besides, the koff (as a rule, a measure of how fast the partners let go of each other) stood at 2.89e-05 s⁻¹ in assay [3], 7.81e-05 s⁻¹ in assay [4], 0.000235 s⁻¹ in assay [5] and 9.72e-05 s⁻¹ in assay [6]. Further, the kon (usually a measure of how fast the partners come together) in assay [3] came to 3.75e+06 M⁻¹ s⁻¹; in assay [4], 303000 M⁻¹ s⁻¹; in assay [5] it was 7.27e+06 M⁻¹ s⁻¹; in assay [6], 1.01e+06 M⁻¹ s⁻¹.

B2: TACI-Mab2 (other)
heavy: EVQLVQSGAEVKKPGESLKISCKGSGYSFTTYWLGWVRQMPGKGLDWIGIMSPVDSDIRYSPSFQGQVTMSVDKSITTAYLQWNSLKASDTAMYYCARRRPGQGYFDFWGQGTLVTVSS[omitted - human IgG1 constant region]GGSSTSCREEQGEFYDHLLRDCISCASICGQHPKQCAAFCENK
light: STSCREEQGEFYDHLLRDCISCASICGQHPKQCAAFCENKLGGGGSGGGGSGGGGS[omitted - about 200 residues]
notes: as for B1
As for B2, the IC50 was found to be 195 pM in assay [1] and 2080 pM in assay [7]. Further, in assay [2], the “IC50 (nM) for the inhibition of IL-12-induced IFNγ secretion” value was determined as 9.31 nM. For the same molecule, the Kd in assay [3] came to 8.21 pM; in assay [4], 93.3 pM; in assay [5], 33.1 pM; in assay [6], 23.8 pM. In addition, the koff was determined as 2.62e-05 s⁻¹ in assay [3], 5.91e-05 s⁻¹ in assay [4], 0.000131 s⁻¹ in assay [5] and 5.32e-05 s⁻¹ in assay [6]. The kon in assay [3] was determined as 3.19e+06 M⁻¹ s⁻¹; in assay [4] it was 633000 M⁻¹ s⁻¹; in assay [5], 3.95e+06 M⁻¹ s⁻¹; in assay [6], 2.24e+06 M⁻¹ s⁻¹.
